According to the supplement of paper PMC4604168 (melanoma cell lines):
This is one part of the list. Most values come without repeats; read them as rough.

How the values were obtained:
Test in all cases: cell count relative to DMSO control; melanoma cells; higher = more viable cells
Conditions in all cases: library dose: standard library concentration; 72 h
G361 = test system: G361
IPC-298 = test system: IPC-298
IST-MEL1 = test system: IST-MEL1
LB2518-MEL = test system: LB2518-MEL
LOXIMVI = test system: LOXIMVI
MEL-HO = test system: MEL-HO
MZ2-MEL = test system: MZ2-MEL
MeWo = test system: MeWo
RPMI7951 = test system: RPMI7951
RVH-421 = test system: RVH-421
SkMel28 = test system: SkMel28
SkMel2 = test system: SkMel2
SkMel30 = test system: SkMel30
SkMel5 = test system: SkMel5
UACC257 = test system: UACC257
UACC62 = test system: UACC62
WM115 = test system: WM115
WM1716 = test system: WM1716
WM3526 = test system: WM3526
WM1745 = test system: WM1745
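Note: cells treated in 1,536-well plates, then fixed and DAPI-stained, with nuclei counted from automated high-throughput microscope images.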

O=C(O)[C@@H]1[O][Sb](=[O])([O][Sb]2(=[O])[O][C@H]([C@H](O)CO)[C@H](O)[C@H](C(=O)O)[O]2)[O][C@H]([C@H](O)CO)[C@@H]1O (some centres undefined) [stibogluconate] + CC(C)CCN1c2nc(Nc3cc(F)c(O)c(F)c3)ncc2N(C)C(=O)C1C [BID1870] (first compound 10 µM, partner dose 1 µM)
cell count (G361): 81.6%
cell count (IPC-298): 92.8%
cell count (IST-MEL1): 92.2%
cell count (LB2518-MEL): 100%
cell count (LOXIMVI): 76.9%
cell count (MEL-HO): 64.3%
cell count (MZ2-MEL): 133%
cell count (MeWo): 80.3%
cell count (RPMI7951): 92.4%
cell count (RVH-421): 68%
cell count (SkMel28): 73.3%
cell count (SkMel2): 123%
cell count (SkMel30): 105%
cell count (SkMel5): 79.7%
cell count (UACC257): 100%
cell count (UACC62): 84.9%
cell count (WM115): 127%
cell count (WM1716): 68%
cell count (WM3526): 85.8%

O=C(Nc1ccccc1)c1cc([N+](=O)[O-])ccc1Cl + COc1ccc(-c2ccc3c(N4CCOCC4)nc(N4C[C@@H](C)O[C@@H](C)C4)nc3n2)cc1CO [KU0063794] (first compound 10 µM, partner dose 0.1 µM)
cell count (G361): 70%
cell count (IPC-298): 90%
cell count (IST-MEL1): 97.7%
cell count (LOXIMVI): 60.8%
cell count (MEL-HO): 76.4%
cell count (MeWo): 73.4%
cell count (RPMI7951): 74%
cell count (RVH-421): 71.1%
cell count (SkMel28): 59.7%
cell count (SkMel30): 102%
cell count (SkMel5): 62%
cell count (UACC257): 91.3%
cell count (UACC62): 119%
cell count (WM115): 66.1%
cell count (WM1716): 97.4%
cell count (WM1745): 73.3%
cell count (WM3526): 74.6%

O=C(O)c1ccc2c(c1)nc(Nc1cccc(Cl)c1)c1ccncc12 + Cc1cc([N+](=O)[O-])ccc1NS(=O)(=O)c1cc(Cl)ccc1Cl [FH535] (first compound 2 µM, partner dose 5 µM)
cell count (G361): 43.3%
cell count (IPC-298): 68.4%
cell count (IST-MEL1): 63.7%
cell count (LOXIMVI): 63.5%
cell count (MEL-HO): 51.6%
cell count (MeWo): 68.7%
cell count (RPMI7951): 72%
cell count (RVH-421): 65%
cell count (SkMel28): 76.8%
cell count (SkMel2): 78.6%
cell count (SkMel30): 67.2%
cell count (SkMel5): 66.7%
cell count (UACC257): 71%
cell count (UACC62): 109%
cell count (WM115): 87.7%
cell count (WM1716): 76.7%
cell count (WM3526): 71.3%

O=C(O)[C@@H]1[O][Sb](=[O])([O][Sb]2(=[O])[O][C@H]([C@H](O)CO)[C@H](O)[C@H](C(=O)O)[O]2)[O][C@H]([C@H](O)CO)[C@@H]1O (some centres undefined) [stibogluconate] + Oc1cc(-c2nc(-c3ccccc3)[nH]c2-c2ccncc2)ccc1Cl [L779450] (first compound 10 µM, partner dose 1 µM)
cell count (G361): 53.4%
cell count (IPC-298): 81.6%
cell count (IST-MEL1): 84.7%
cell count (LB2518-MEL): 74%
cell count (LOXIMVI): 96.8%
cell count (MEL-HO): 79.7%
cell count (MZ2-MEL): 93.8%
cell count (MeWo): 66.9%
cell count (RPMI7951): 87.5%
cell count (RVH-421): 100%
cell count (SkMel28): 40.5%
cell count (SkMel2): 24.7%
cell count (SkMel30): 75.8%
cell count (SkMel5): 73%
cell count (UACC257): 90.2%
cell count (UACC62): 48.5%
cell count (WM115): 47.9%
cell count (WM1716): 64.8%
cell count (WM3526): 45.2%

O=C(Nc1cc(C(F)(F)F)cc(C(F)(F)F)c1)c1cc(Cl)ccc1O + CC(=O)O[C@@]12CO[C@@H]1C[C@H](O)[C@@]1(C)C(=O)[C@H](O)C3=C(C)[C@@H](OC(=O)[C@H](O)[C@@H](NC(=O)OC(C)(C)C)c4ccccc4)C[C@@](O)([C@@H](OC(=O)c4ccccc4)[C@H]21)C3(C)C [Docetaxel] (first compound 0.08 µM, partner dose 0.0005 µM)
cell count (G361): 15.5%
cell count (IPC-298): 44.1%
cell count (IST-MEL1): 38.6%
cell count (LOXIMVI): 56%
cell count (MEL-HO): 43.3%
cell count (MeWo): 33.6%
cell count (RPMI7951): 19.9%
cell count (RVH-421): 50.5%
cell count (SkMel28): 19%
cell count (SkMel2): 38.1%
cell count (SkMel30): 42%
cell count (SkMel5): 34.7%
cell count (UACC257): 77.5%
cell count (UACC62): 71.5%
cell count (WM115): 38.2%
cell count (WM1716): 43.2%
cell count (WM1745): 37.5%
cell count (WM3526): 54.5%

O=C(O)[C@@H]1[O][Sb](=[O])([O][Sb]2(=[O])[O][C@H]([C@H](O)CO)[C@H](O)[C@H](C(=O)O)[O]2)[O][C@H]([C@H](O)CO)[C@@H]1O (some centres undefined) [stibogluconate] + CCc1ccc(CCOc2ccc(CC3SC(=O)NC3=O)cc2)nc1 [pioglitazone] (first compound 10 µM, partner dose 10 µM)
cell count (G361): 109%
cell count (IPC-298): 97.9%
cell count (IST-MEL1): 102%
cell count (LB2518-MEL): 102%
cell count (LOXIMVI): 77.7%
cell count (MEL-HO): 89.3%
cell count (MZ2-MEL): 97.2%
cell count (MeWo): 109%
cell count (RPMI7951): 122%
cell count (RVH-421): 102%
cell count (SkMel28): 96.6%
cell count (SkMel2): 109%
cell count (SkMel30): 114%
cell count (SkMel5): 122%
cell count (UACC257): 116%
cell count (UACC62): 115%
cell count (WM115): 95.9%
cell count (WM1716): 92.6%
cell count (WM3526): 111%
